PubChem BioAssay AID1768 (National Center for Advancing Translational Sciences (NCATS), 2009)
The whole screen tested about 270,000 compounds, of which about 620 (0.23%) were called active. This list was built around the results that the source calls inconclusive (neither active nor inactive); the mix of calls is not that of the screen. Calls come from the whole dose curve; as a rule, active = well fitted inhibition curve with a large enough effect in the polarisation, with a control signal flat (not every such curve was filed as active); inconclusive = small, poorly fitted or top-dose-only effect, or effect the other way, or a change in a side signal; inactive = no such curve, though single readings can be large or run the other way; the % refers to the polarisation. Potencies of inconclusive entries are doubtful fits and often do not repeat. “Side channel” marks fits to a control or component signal instead of the main read-out.

Molecular target: Menin (Homo sapiens) (UniProt O00255)
Test: qHTS Assay for Inhibitors Targeting the Menin-MLL Interaction in MLL Related Leukemias: Competition With Texas Red Labeled MLL-derived Mutant Peptide; for FP activity change, negative = inhibition: % of control where 0% means no effect
Details: fluorescence polarization; FP activity change, negative = inhibition: at 61.6 µM (top of the series)
Potency is the fitted concentration of half-maximal effect; tags give direction and shape of the fitted curve or compound fluorescence and quenching.

Chain of UniProt O00255 (O00255 whole entry, looked up): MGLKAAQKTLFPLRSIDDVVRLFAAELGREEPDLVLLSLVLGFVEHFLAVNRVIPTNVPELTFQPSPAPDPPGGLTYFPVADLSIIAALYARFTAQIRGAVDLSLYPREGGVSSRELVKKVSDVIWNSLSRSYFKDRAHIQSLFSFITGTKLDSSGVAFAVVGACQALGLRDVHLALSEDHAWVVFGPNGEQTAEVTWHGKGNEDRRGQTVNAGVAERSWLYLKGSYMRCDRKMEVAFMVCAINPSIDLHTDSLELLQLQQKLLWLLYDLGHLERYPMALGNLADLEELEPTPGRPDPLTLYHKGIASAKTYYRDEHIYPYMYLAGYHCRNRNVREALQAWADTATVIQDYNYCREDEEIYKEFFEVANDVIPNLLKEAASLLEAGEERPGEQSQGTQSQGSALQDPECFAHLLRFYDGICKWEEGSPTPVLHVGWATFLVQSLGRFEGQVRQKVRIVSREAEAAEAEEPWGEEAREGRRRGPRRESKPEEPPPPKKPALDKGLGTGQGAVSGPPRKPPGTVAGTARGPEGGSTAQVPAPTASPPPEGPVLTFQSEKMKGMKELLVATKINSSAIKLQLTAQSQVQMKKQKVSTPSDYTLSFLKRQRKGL

Row | Structure (SMILES) | FP activity change, negative = inhibition | Potency
1 | S=c1nc(-c2ccccc2)c(-c2ccccc2)n[nH]1 | inactive: 4.66% | 
2 | Cc1nc(-c2ccc(C(=O)Nc3cccc(F)c3)cc2)cs1 |  | inconclusive: 39.8 µM [fluorescent, single point]
3 | O=c1[nH]c(=S)[nH]c2sccc12 |  | inconclusive: 0.631 µM [quencher, side channel, full curve, poor fit]
4 | COc1ccc(-n2c(=O)cnc3cnc(N(C)C)nc32)cc1 | inactive: -7.49% | 
5 | Cc1ccccc1-c1nc(NCc2cccs2)c2ccccc2n1 |  | inconclusive: 17.8 µM [quencher, side channel, single point]
6 | CCOC(=O)C1(Cc2ccc(Cl)cc2)CCN(C(=O)c2ccoc2)CC1 |  | inconclusive: 8.91 µM [fluorescent, side channel, partial curve]
7 | S=C(Nc1cccc(Cl)c1)Nc1ccccc1Oc1ccccc1 |  | inconclusive: 17.8 µM [quencher, side channel, partial curve]
8 | COCCn1c(=O)[nH]c2cc(C(=O)OC)ccc2c1=O | inactive: 17.7% | 
9 | CC(=O)/C(C#N)=C1\NC(=O)C(Cc2ccc(C)c(C)c2)S1 (stereo not given) |  | inconclusive: 17.8 µM [quencher, side channel, single point]
10 | O=C(CCn1c(=S)oc2ccccc21)Nc1ccc(F)cc1 |  | inconclusive: 39.8 µM [fluorescent, single point]
11 | COc1ccc(N(C)S(=O)(=O)c2cccc(C(=O)NC3=NCCS3)c2)cc1 |  | inconclusive: 39.8 µM [inhibitor, partial curve]
12 | CC1=C(C(=O)OCc2ccccc2)C(c2ccc(Cl)cc2)NC(=O)N1C (stereo not given) |  | inconclusive: 8.91 µM [fluorescent, side channel, partial curve]
13 | O=C(c1nc2ccc(Cl)cn2c1CNCC[C@@H]1C[C@@H]2C=C[C@H]1C2)N1CCCCCCC1 |  | inconclusive: 11.2 µM [inhibitor, partial curve]
14 | Cc1csc(NC(=O)c2cc(-c3ccco3)nc3ccccc23)n1 |  | inconclusive: 10 µM [quencher, side channel, partial curve]
15 | O=c1c(-c2ccc(F)cc2)nc2cnc(N3CCNCC3)nc2n1Cc1ccc(F)cc1 | inactive: 16.4% | 
16 | Cc1cccc(NN=C2c3ccccc3-c3ccccc32)c1 |  | inconclusive: 8.91 µM [quencher, side channel, partial curve]
17 | COc1ccc(CCNC(=O)CSCc2ccc([N+](=O)[O-])cc2)cc1OC | inactive: -1.21% | 
18 | CCN(CC)S(=O)(=O)c1ccc(/C=C/C(=O)OCC(=O)NCc2ccc3c(c2)OCO3)cc1 |  | inconclusive: 31.6 µM [inhibitor, partial curve]
19 | Cc1nc2c(-c3ccc(F)cc3)c(C)[nH]n2c(=O)c1Cl |  | inconclusive: 31.6 µM [quencher, side channel, single point]
20 | O=C1c2ccccc2C(=O)c2c(NCCCN(CCO)CCO)cccc21 |  | inconclusive: 14.1 µM [inhibitor, partial curve]

Row | Structure (SMILES) | FP activity change, negative = inhibition | Potency
21 | Cc1nc(N)sc1-c1csc(N(C)c2ccc(O)cc2)n1 |  | inconclusive: 28.2 µM [quencher, side channel, single point]
22 | O=C(O)Cc1ccc2[nH]c3ccc(CC(=O)O)cc3c2c1 |  | inconclusive: 20 µM [quencher, side channel, partial curve]
23 | CCOC(=O)C1=C(C)N(C)C(=O)NC1c1c(C)nn(-c2ccc(C)cc2)c1Cl (stereo not given) |  | inconclusive: 39.8 µM [fluorescent, side channel, single point]
24 | O=C(CSc1nnc(NC(=O)c2ccccc2Cl)s1)Nc1ccc2c(c1)oc1ccccc12 |  | inconclusive: 6.31 µM [quencher, side channel, partial curve]
25 | O=C(Nc1ccc(S(=O)(=O)Nc2nccs2)cc1)/C(=C/c1ccccc1Cl)NC(=O)c1ccccc1 |  | inconclusive: 39.8 µM [inhibitor, single point]
26 | COc1ccc(N2CCN(CCCNS(=O)(=O)c3c(C)noc3/C=C/N(C)C)CC2)cc1 |  | inconclusive: 25.1 µM [inhibitor, partial curve, poor fit]
27 | COC(=O)c1cccc(NC(=O)CSc2nnc(C)n2C)c1 |  | inconclusive: 10 µM [inhibitor, partial curve, poor fit]
28 | O=C(CCCC(=O)N1CCN(c2ccccc2F)CC1)N1CCN(c2ccccc2F)CC1 |  | inconclusive: 35.5 µM [fluorescent, side channel, partial curve]
29 | Cc1ccc2c(Br)cc(Br)c(O)c2n1 | inactive: -8.8% | 
30 | CCOc1cc(-c2nccc3cc(OC)c(OC)cc23)cc(OCC)c1OCC |  | inconclusive: 3.98 µM [inhibitor, full curve]
31 | COc1ccccc1CCn1c(=O)c(-c2ccc(F)cc2)nc2cncnc21 |  | inconclusive: 39.8 µM [inhibitor, single point]
32 | CC(/C=C/c1ccc(N(C)C)cc1)=N\N=C1\NC(=O)CC(C(=O)Nc2ccccc2)S1 (stereo not given) |  | inconclusive: 15.8 µM [quencher, side channel, partial curve]
33 | COc1ccc(-c2[nH]c(-c3ccc(SC)cc3)nc2SCC(=O)Nc2nccs2)cc1 |  | inconclusive: 4.47 µM [quencher, side channel, full curve]
34 | Clc1ccc(/C=N/c2c(-c3ccco3)nc3ccccn23)cc1 |  | inconclusive: 28.2 µM [quencher, side channel, single point]
35 | Cc1cccc(C)c1OCCCCc1c(C)n[nH]c1C |  | inconclusive: 7.94 µM [fluorescent, side channel, partial curve]
36 | Cc1ccc(C)c(S(=O)(=O)Nc2cc(SCC(=O)O)c(O)c3ccccc23)c1 |  | inconclusive: 10 µM [quencher, side channel, partial curve]
37 | O=C(c1ccccc1)N1CCN(Cc2ccccc2C(F)(F)F)CC1 |  | inconclusive: 39.8 µM [fluorescent, side channel, partial curve]
38 | CC(=O)Nc1nn(C)c2nc3ccc(C)cc3cc12 |  | inconclusive: 39.8 µM [inhibitor, single point]
39 | Cc1cccc(C2NC(c3cccc(C)c3)C(C)C(=O)C2C)c1 (stereo not given) |  | inconclusive: 14.1 µM [fluorescent, side channel, partial curve]
40 | COc1ccc(/C=N/NC(=O)CCn2c3ccccc3c3ccccc32)cc1O |  | inconclusive: 25.1 µM [quencher, partial curve]

Row | Structure (SMILES) | FP activity change, negative = inhibition | Potency
41 | COc1ccc(Sc2nc(-c3ccccc3)ncc2C(=O)O)cc1 |  | inconclusive: 14.1 µM [quencher, side channel, partial curve]
42 | CC(=O)Nc1ccc(NC(=O)c2ccc(-c3ccc([N+](=O)[O-])cc3)o2)cc1 |  | inconclusive: 8.91 µM [quencher, side channel, partial curve]
43 | CCc1ccc(NC(=O)C(=O)NCc2ccccn2)cc1 |  | inconclusive: 35.5 µM [inhibitor, single point]
44 | CCOc1ccccc1NC(=O)C(NCC1CCCCC1)c1ccccc1 (stereo not given) |  | inconclusive: 10 µM [fluorescent, side channel, partial curve]
45 | COc1cc(NS(=O)(=O)c2ccccc2)ccc1-n1nc(C)cc1C |  | inconclusive: 39.8 µM [fluorescent, side channel, single point]
46 | O=C(Nc1ccc(NS(=O)(=O)c2ccc([N+](=O)[O-])cc2)cc1)c1ccco1 |  | inconclusive: 14.1 µM [quencher, side channel, partial curve]
47 | COc1cccc(C(=O)NCCCNC(=O)c2cccnc2)c1 |  | inconclusive: 0.631 µM [inhibitor, full curve, poor fit]
48 | Cn1c(=O)c2c(nc(N/N=C/c3cccs3)n2Cc2ccc(Br)cc2)n(C)c1=O |  | inconclusive: 35.5 µM [quencher, side channel, single point]
49 | O=C(Cc1ccc(Br)cc1)NNC(=O)Nc1ccc(Cl)cc1 |  | inconclusive: 28.2 µM [inhibitor, single point]
50 | CSc1nsc(/C=C/Nc2cccc(Cl)c2)c1C#N |  | inconclusive: 20 µM [quencher, side channel, partial curve]
51 | CC(C)OC(=O)c1ccc2nc3ccccc3nc2c1 |  | inconclusive: 5.01 µM [inhibitor, full curve]
52 | O=C(Nc1ccccc1Cl)Nc1cccc2cccnc12 |  | inconclusive: 17.8 µM [quencher, side channel, single point]
53 | Cc1nc2ccccc2n1CC(=O)N/N=C\C=C\c1ccccc1 |  | inconclusive: 8.91 µM [inhibitor, full curve]
54 | COc1cccc2cc(-c3nnc(SCC(=O)Nc4nc(C)cs4)n3C)oc12 |  | inconclusive: 14.1 µM [fluorescent, side channel, partial curve]
55 | O=C(N1CCN(Cc2ccccc2)CC1)C(Cl)(Cl)Cl | inactive: -11% | 
56 | C=CCSC1=N/C(=C\c2cc(OCC)c(OC(C)=O)c([N+](=O)[O-])c2)C(=O)S1 |  | inconclusive: 14.1 µM [quencher, side channel, partial curve]
57 | O=C(c1ccc(N2CCCCC2)c([N+](=O)[O-])c1)N(c1ccccn1)c1ccccn1 |  | inconclusive: 20 µM [fluorescent, side channel, partial curve]
58 | Cc1cccc(C(=O)NNC(=O)c2cc3cc4ccccc4nc3s2)c1 | inactive: -10.5% | 
59 | CCN=C1Sc2nc3ccc(OCC)cc3cc2CN1CCOC | inactive: 0.2% | 
60 | O=C1NN(c2ccccc2)C(=O)C2C3C=CC(C4CC34)C12 (stereo not given) | inactive: -9.06% | 
